Results published in patent publication US10532068B2, “Dual molecular delivery of oligonucleotides and peptide containing conjugates” (Merck Sharp & Dohme Corp., priority 2013, dated 2020).
Part of at least one peptide drawing is inferred or uncertain, most often the ends. Where a SMILES comes first, the peptide text is derived from it. [ ]: non-standard residue; d: D form. The star is where a group is joined. X1 = CC(=O)N[C@H]1[C@H](OCCOCCn2cc(CN(CCCC[C@@H](C(=O)NCCS*)N(Cc3cn(CCOCCO[C@@H]4O[C@H](CO)[C@H](O)[C@H](O)[C@H]4NC(C)=O)nn3)Cc3cn(CCOCCO[C@@H]4O[C@H](CO)[C@H](O)[C@H](O)[C@H]4NC(C)=O)nn3)Cc3cn(CCOCCO[C@@H]4O[C@H](CO)[C@H](O)[C@H](O)[C@H]4NC(C)=O)nn3)nn2)O[C@H](CO)[C@H](O)[C@@H]1O

Legend:
[1] = system: CTNNB1; experiment: In vivo evaluation in mice: liver mRNA knockdown measurement (TaqMan qPCR); set-up: species or system CD-1 mice; settings: Table 6; mice; sequential, peptide IV 15 min after siRNA IV; TGN-L-siRNA-III 0.25 mg/kg; peptide 5 mg/kg
Procedure: Female CD-1 mice (Charles River) were injected in accordance with either a sequential dosing paradigm or a co-dosing paradigm. In the sequential dosing paradigm, the targeted siRNA (SCE) is dosed at t=0 and the targeted peptide is separately dosed up to 2 hr before the SCE (−2 hr) or up to 24 hr after the SCE (+24 hr). In the co-dosing paradigm, the SCE and peptides are co-formulated and dosed together in the same formulation as a single injection at t=0. The mice were dosed either by intravenous (i.v.) or subcutaneous (s.c.) injection of SCE and peptide. For the i.v. doses, the compounds were injected into the tail vein of the mice. For the s.c. doses, the compounds were injected in the subcutaneous space on the back of the mouse between the shoulder blades. At the indicated harvest times (measured from t=0 when the siRNA was dosed, regardless of when the peptide was dosed), the animals were sacrificed and 3 mm liver punches were collected, preserved in RNAlater (Ambion), and stored at 4° C. Separate 5 mm liver punches were collected, placed in 96-well plates, frozen on dry ice, and stored at −80° C. until use.
The 3 mm liver punches were removed from RNAlater and homogenized in Trizol (Invitrogen) using a bead mill tissue lyser (Qiagen); disruption was performed for two 5-minute cycles at 30 Hz. RNA extraction was performed using 1-bromo-2-chloropropane (Acros Organics) and total RNA was isolated from the aqueous phase using the MagMax RNA isolation method (Ambion). […] TaqMan qPCR analysis was performed with an ABI 7900 Real-Time PCR System using TaqMan Fast Advanced Master Mix (Applied Biosystems). All TaqMan probes and primers for CTNNB1 and PPIB (housekeeping gene) were purchased from Applied Biosystems as pre-validated gene expression assays. Results are calculated by the comparative Ct method, where the difference between the CTNNB1 Ct value and the PPIB Ct value (ΔCt) is calculated and then further normalized relative to the PBS control by taking a second difference (ΔΔCt), as described previously (1).

[2] = system: CTNNB1; experiment: In Vitro DMD Assay: mRNA silencing enhancement by peptide conjugates after siRNA-IV treatment of primary mouse hepatocytes (RT-qPCR); format: cell-based; settings: siRNA-IV 125 nM

Compound	In vivo mRNA knockdown (%) [1] [%]	In vitro dddCt (vs. baseline SCE dose) ([2]; Targeted peptide dose 25 nM)	In vitro dddCt (vs. baseline SCE dose) ([2]; Targeted peptide dose 125 nM)	In vitro dddCt (vs. baseline SCE dose) ([2]; Targeted peptide dose 625 nM)	In vitro dddCt (vs. baseline SCE dose) ([2]; Targeted peptide dose 3125 nM)	In vitro dddCt (vs. baseline SCE dose) ([2]; Targeted peptide dose 8 nM)	In vitro dddCt (vs. baseline SCE dose) ([2]; Targeted peptide dose 40 nM)	In vitro dddCt (vs. baseline SCE dose) ([2]; Targeted peptide dose 200 nM)	In vitro dddCt (vs. baseline SCE dose) ([2]; Targeted peptide dose 1000 nM)	In vitro dddCt (vs. baseline SCE dose) ([2]; Targeted peptide dose 5000 nM)
CC[C@@H](C)[C@@H](NC(=O)[C@@H](CCC(=O)O)NC(=O)[C@@H](CCC(=O)O)NC(=O)[C@@H](CC(C)C)NC(=O)[C@@H](CC(C)C)NC(=O)CN)C(=O)N[C@H](CCC(=O)O)C(=O)N[C@H](CCC(=O)O)C(=O)N[C@H](CC(C)C)C(=O)N[C@H](CC(C)C)C(=O)N[C@H](CCC(=O)O)C(=O)N[C@H](CCC(=O)O)C(=O)NCC(=O)N[C@H](CC(C)C)C(=O)N[C@H](CCC(=O)O)C(=O)N[C@H](CC(N)=O)C(=O)N[C@H](CC(C)C)C(=O)N[C@H](C)C(=O)N[C@H](CCC(=O)O)C(=O)N[C@H](CC(C)C)C(=O)N[C@H](C)C(=O)N[C@H](CCC(=O)O)C(=O)N[C@H](C)C(=O)N[C@H](CC(C)C)C(=O)N[C@H](CCC(=O)O)C(=O)N[C@H](C)C(=O)N[C@H](CC(C)C)C(=O)N[C@H](C)C(=O)N[C@H](C)C(=O)NCC(=O)NCC(=O)N[C@H](CO)C(=O)N[C@H](CSSCCNC(=O)[C@H](CCCCN(Cc1cn(CCOCCO[C@@H]2O[C@H](CO)[C@H](O)[C@H](O)[C@H]2NC(C)=O)nn1)Cc1cn(CCOCCO[C@@H]2O[C@H](CO)[C@H](O)[C@H](O)[C@H]2NC(C)=O)nn1)N(Cc1cn(CCOCCO[C@@H]2O[C@H](CO)[C@H](O)[C@H](O)[C@H]2NC(C)=O)nn1)Cc1cn(CCOCCO[C@@H]2O[C@H](CO)[C@H](O)[C@H](O)[C@H]2NC(C)=O)nn1)C(N)=O [TGN-S-S-SEQ ID NO: 1703 (D)] (H-G[dL][dL][dE][dE][dI][dE][dE][dL][dL][dE][dE]G[dL][dE][dN][dL][dA][dE][dL][dA][dE][dA][dL][dE][dA][dL][dA][dA]GG[dS][dC](X1)-NH2)	54	−0.09	−0.38	−0.43	−0.57	–	–	–	–	–
CC[C@@H](C)[C@@H](NC(=O)[C@@H](CCC(=O)O)NC(=O)[C@@H](CCC(=O)O)NC(=O)[C@@H](Cc1ccccc1)NC(=O)[C@@H](CC(C)C)NC(=O)[C@@H](CCC(=O)O)NC(=O)[C@H](N)CSSCCNC(=O)[C@H](CCCCN(Cc1cn(CCOCCO[C@@H]2O[C@H](CO)[C@H](O)[C@H](O)[C@H]2NC(C)=O)nn1)Cc1cn(CCOCCO[C@@H]2O[C@H](CO)[C@H](O)[C@H](O)[C@H]2NC(C)=O)nn1)N(Cc1cn(CCOCCO[C@@H]2O[C@H](CO)[C@H](O)[C@H](O)[C@H]2NC(C)=O)nn1)Cc1cn(CCOCCO[C@@H]2O[C@H](CO)[C@H](O)[C@H](O)[C@H]2NC(C)=O)nn1)C(=O)N[C@H](C)C(=O)N[C@H](CCC(=O)O)C(=O)N[C@H](CC(C)C)C(=O)N[C@@H](C(=O)N[C@H](CCC(=O)O)C(=O)N[C@H](CCC(=O)O)C(=O)NCC(=O)N[C@H](CC(C)C)C(=O)N[C@H](CCC(=O)O)C(=O)N[C@H](CC(N)=O)C(=O)N[C@H](CC(C)C)C(=O)N[C@@H](C(=O)N[C@H](CC(=O)O)C(=O)N[C@H](Cc1c[nH]c2ccccc12)C(=O)NCC(N)=O)[C@H](C)CC)[C@H](C)CC [TGN-S-S-SEQ ID NO: 1707 (D)] (H-[dC](X1)[dE][dL][dF][dE][dE][dI][dA][dE][dL][dI][dE][dE]G[dL][dE][dN][dL][dI][dD][dW]G-NH2)	56	−0.35	−0.21	−0.54	−0.39	–	–	–	–	–
CC[C@@H](C)[C@@H](NC(=O)[C@@H](CC(C)C)NC(=O)[C@@H](CC(N)=O)NC(=O)[C@@H](CCC(=O)O)NC(=O)[C@@H](CC(C)C)NC(=O)CNC(=O)[C@@H](CCC(=O)O)NC(=O)[C@@H](CCC(=O)O)NC(=O)[C@H](NC(=O)[C@@H](CC(C)C)NC(=O)[C@@H](CCC(=O)O)NC(=O)[C@@H](CCC(=O)O)NC(=O)[C@H](NC(=O)[C@@H](CCC(=O)O)NC(=O)CNC(=O)[C@@H](Cc1ccccc1)NC(=O)[C@@H](CC(C)C)NC(=O)CNC(=O)[C@H](N)CSSCCNC(=O)[C@H](CCCCN(Cc1cn(CCOCCO[C@@H]2O[C@H](CO)[C@H](O)[C@H](O)[C@H]2NC(C)=O)nn1)Cc1cn(CCOCCO[C@@H]2O[C@H](CO)[C@H](O)[C@H](O)[C@H]2NC(C)=O)nn1)N(Cc1cn(CCOCCO[C@@H]2O[C@H](CO)[C@H](O)[C@H](O)[C@H]2NC(C)=O)nn1)Cc1cn(CCOCCO[C@@H]2O[C@H](CO)[C@H](O)[C@H](O)[C@H]2NC(C)=O)nn1)[C@H](C)CC)[C@H](C)CC)C(N)=O [TGN-S-S-SEQ ID NO: 1706 (D)] (H-[dC](X1)G[dL][dF]G[dE][dI][dE][dE][dL][dI][dE][dE]G[dL][dE][dN][dL][dI]-NH2)	61	−0.77	−0.95	−1.05	−1.01	–	–	–	–	–
CC[C@H](C)[C@H](NC(=O)[C@H](CCC(=O)O)NC(=O)CNC(=O)[C@H](Cc1ccccc1)NC(=O)[C@H](CC(C)C)NC(=O)CNC(C)=O)C(=O)N[C@@H](CCC(=O)O)C(=O)N[C@@H](CCC(=O)O)C(=O)N[C@@H](CC(C)C)C(=O)N[C@H](C(=O)N[C@@H](CCC(=O)O)C(=O)N[C@@H](CCC(=O)O)C(=O)NCC(=O)N[C@@H](CC(C)C)C(=O)N[C@@H](CCC(=O)O)C(=O)N[C@@H](CC(N)=O)C(=O)N[C@@H](CC(C)C)C(=O)N[C@H](C(=O)N[C@@H](CC(=O)O)C(=O)N[C@@H](Cc1c[nH]c2ccccc12)C(=O)NCC(=O)N[C@@H](CC(N)=O)C(=O)NCC(=O)N[C@@H](CSSCCNC(=O)[C@H](CCCCN(Cc1cn(CCOCCO[C@@H]2O[C@H](CO)[C@H](O)[C@H](O)[C@H]2NC(C)=O)nn1)Cc1cn(CCOCCO[C@@H]2O[C@H](CO)[C@H](O)[C@H](O)[C@H]2NC(C)=O)nn1)N(Cc1cn(CCOCCO[C@@H]2O[C@H](CO)[C@H](O)[C@H](O)[C@H]2NC(C)=O)nn1)Cc1cn(CCOCCO[C@@H]2O[C@H](CO)[C@H](O)[C@H](O)[C@H]2NC(C)=O)nn1)C(N)=O)[C@@H](C)CC)[C@@H](C)CC [TGN-S-S-SEQ ID NO: 1708 (L)] (Ac-GLFGEIEELIEEGLENLIDWGNGC(X1)-NH2)	46	–	–	–	–	0	0.06	0.04	0.07	0.14
CC[C@@H](C)[C@@H](NC(=O)[C@@H](CC(C)C)NC(=O)[C@@H](CC(N)=O)NC(=O)[C@@H](CCC(=O)O)NC(=O)[C@@H](CC(C)C)NC(=O)CNC(=O)[C@@H](CCC(=O)O)NC(=O)[C@@H](CCC(=O)O)NC(=O)[C@H](NC(=O)[C@@H](CC(C)C)NC(=O)[C@@H](CCC(=O)O)NC(=O)[C@@H](CCC(=O)O)NC(=O)[C@H](NC(=O)[C@@H](CCC(=O)O)NC(=O)CNC(=O)[C@@H](Cc1ccccc1)NC(=O)[C@@H](CC(C)C)NC(=O)CNC(=O)[C@H](N)CSSCCNC(=O)[C@H](CCCCN(Cc1cn(CCOCCO[C@@H]2O[C@H](CO)[C@H](O)[C@H](O)[C@H]2NC(C)=O)nn1)Cc1cn(CCOCCO[C@@H]2O[C@H](CO)[C@H](O)[C@H](O)[C@H]2NC(C)=O)nn1)N(Cc1cn(CCOCCO[C@@H]2O[C@H](CO)[C@H](O)[C@H](O)[C@H]2NC(C)=O)nn1)Cc1cn(CCOCCO[C@@H]2O[C@H](CO)[C@H](O)[C@H](O)[C@H]2NC(C)=O)nn1)[C@H](C)CC)[C@H](C)CC)C(=O)N[C@H](CC(=O)O)C(N)=O [TGN-S-S-SEQ ID NO: 1705 (D)] (H-[dC](X1)G[dL][dF]G[dE][dI][dE][dE][dL][dI][dE][dE]G[dL][dE][dN][dL][dI][dD]-NH2)	59	−0.06	−0.21	−0.69	−0.17	0.16	−0.1	−0.68	0.99	−1.1
